At least one peptide structure holds a part that was inferred or is arguable (an end, a ring closure or a residue). Marks after values point to notes of the source that are not given here. Some of these results come from one statement about several compounds together. Peptide text beside a SMILES is read from it.
Legend:
[1] = Stability against chemical degradation in water or pH buffers at 50° C. (HPLC); conditions: for days over 80% of time 0 peptide signal: 0.2% AI, 0.25% Proxel GXL, 50 mM buffers
[2] = Effect of bulking agents on chemical degradation (HPLC); assay type: physicochemical
[3] = system: tobacco mosaic virus (TMV); assay: Induced resistance of tobacco to infection with tobacco mosaic virus; conditions: % decline in TMV lesions vs UTC; for Effectiveness Covered (%): covered leaves (systemic response); for Effectiveness Uncovered (%): uncovered leaves (local response)
[4] = for Maximum lifetime, days over 80%: 0.2% AI, 50 mM TES buffer, 0.25% Proxel GXL, 30% isopropanol
[5] = system: soy; assay: Peptide seed treatment, root and shoot growth, soy; assay type: in vivo, soybean; conditions: seed soak 0.2 μg/ml, 12-14 days
[6] = system: Nicotiana tabacum cultivar xanthi plants; conditions: result in words; HR test of Example 1

## CC[C@H](C)[C@H](NC(=O)CNC(=O)[C@H](CCC(=O)O)NC(=O)[C@@H](N)CC(N)=O)C(=O)N[C@@H](CO)C(=O)N[C@@H](CCC(=O)O)C(=O)N[C@@H](CCCCN)C(=O)N[C@@H](CCC(=O)O)C(=O)N[C@@H](CC(C)C)C(=O)N[C@@H](CC(=O)O)C(=O)N[C@@H](CCC(=O)O)C(=O)N[C@@H](CC(C)C)C(=O)N[C@@H](CC(C)C)C(=O)N[C@H](C(=O)N[C@@H](CCC(=O)O)C(=O)N[C@@H](CC(C)C)C(=O)N[C@H](C(=O)N[C@@H](CCC(=O)O)C(=O)N[C@@H](C)C(=O)N[C@@H](CC(C)C)C(=O)N[C@@H](CC(C)C)C(=O)N[C@@H](CCC(N)=O)C(=O)N[C@@H](CCC(N)=O)C(=O)O)[C@@H](C)CC)[C@@H](C)O [P1-2E,8E,11E,15E,18E] (H-NEGISEKELDELLTELIEALLQQ-OH; N-terminus and C-terminus assumed)
[1]; 50° C.
  days over 80% of time 0 peptide signal: 40 days
[2]; all samples: 50 mM TES pH 8.0, 20% trehalose, maltrin, sucrose or talc, 50° C.
  % of the original concentration for at least 14 days: above 80%
[2]; talc powder as bulking agent, 50 mM TES pH 8.0, 50° C.
  days above 80%: 44 days
[3]; 5 ug/ml spray
  Effectiveness Covered (%): 66* %
  Effectiveness Uncovered (%): 74* %
[4]
  Maximum lifetime, days over 80%: 45 days

## CC[C@H](C)[C@H](NC(=O)CNC(=O)[C@H](CCC(N)=O)NC(=O)[C@@H](N)CC(N)=O)C(=O)N[C@@H](CO)C(=O)N[C@@H](CCC(=O)O)C(=O)N[C@@H](CCCCN)C(=O)N[C@@H](CCC(N)=O)C(=O)N[C@@H](CC(C)C)C(=O)N[C@@H](CC(=O)O)C(=O)N[C@@H](CCC(N)=O)C(=O)N[C@@H](CC(C)C)C(=O)N[C@@H](CC(C)C)C(=O)N[C@H](C(=O)N[C@@H](CCC(N)=O)C(=O)N[C@@H](CC(C)C)C(=O)N[C@H](C(=O)N[C@@H](CCSC)C(=O)N[C@@H](C)C(=O)N[C@@H](CC(C)C)C(=O)N[C@@H](CC(C)C)C(=O)N[C@@H](CCC(N)=O)C(=O)N[C@@H](CCC(N)=O)C(=O)O)[C@@H](C)CC)[C@@H](C)O [Peptide P1] (H-NQGISEKQLDQLLTQLIMALLQQ-OH; N-terminus and C-terminus assumed)
[1]; 50 mM MES pH 6.0, 50° C.
  increase in soluble concentration after 24 hour incubation: 50%
[1]; 50 mM imidazole, pH 8.0
  % of the original concentration after 3 days: < 10%
[1]; 50° C.
  days over 80% of time 0 peptide signal: 20 days
[1]; citrate pH 7.2, 50° C.
  % of original concentration after 7 days: 20%
[2]; all mixtures: 50 mM TES pH 8.0, 20% trehalose, maltrin, sucrose or talc, 50° C.
  % of the original peptide concentration after 6 days: less than 60%
[3]; 20 ug/ml spray
  Effectiveness Covered (%): 91* %
  Effectiveness Uncovered (%): 100* %

## CC(C)C[C@H](NC(=O)[C@H](C)NC(=O)[C@H](CCC(N)=O)NC(=O)[C@H](C)NC(=O)[C@@H]1CCCN1C(=O)[C@H](CC(=O)O)NC(=O)[C@@H](N)CCC(N)=O)C(=O)N[C@@H](CCC(=O)O)C(=O)N[C@@H](CCC(N)=O)C(=O)N[C@@H](CC(C)C)C(=O)N[C@@H](CC(C)C)C(=O)N[C@@H](CCC(=O)O)C(=O)N[C@@H](CC(=O)O)C(=O)N[C@@H](CC(C)C)C(=O)N[C@H](C(=O)N[C@@H](CCCCN)C(=O)N[C@@H](CC(C)C)C(=O)N[C@@H](CC(C)C)C(=O)N[C@@H](CCCCN)C(=O)O)C(C)C [Peptide P14f] (H-QDPAQALEQLLEDLVKLLK-OH; N-terminus and C-terminus assumed)
[3]; 10 ug/ml spray
  Effectiveness Covered (%): 86* %
  Effectiveness Uncovered (%): 72%
[4]; 50° C., 50 mM TES, pH 8.0 and 30% isopropanol
  chemical stability for >50 days: > 85%

## CC[C@H](C)[C@H](NC(=O)CNC(=O)[C@H](CCC(N)=O)NC(=O)[C@@H](N)CO)C(=O)N[C@@H](CO)C(=O)N[C@@H](CCC(=O)O)C(=O)N[C@@H](CCCCN)C(=O)N[C@@H](CCC(N)=O)C(=O)N[C@@H](CC(C)C)C(=O)N[C@@H](CC(=O)O)C(=O)N[C@@H](CCC(N)=O)C(=O)N[C@@H](CC(C)C)C(=O)N[C@@H](CC(C)C)C(=O)N[C@@H](CO)C(=O)N[C@@H](CCC(N)=O)C(=O)N[C@@H](CC(C)C)C(=O)N[C@H](C(=O)N[C@@H](CCC(N)=O)C(=O)N[C@@H](C)C(=O)N[C@@H](CC(C)C)C(=O)N[C@@H](CC(C)C)C(=O)N[C@@H](CCC(N)=O)C(=O)N1CCC[C@H]1C(=O)O)[C@@H](C)CC [Peptide P4-14S] (H-SQGISEKQLDQLLSQLIQALLQP-OH; N-terminus and C-terminus assumed)
[1]; 50° C.
  days over 80% of time 0 peptide signal: 35 days
[1]; 50° C., depending on conditions (buffers of FIGS. 12-21)
  % of the original material after 14 days: 90%
[5]; root growth index
  Root (%): 13.5* %
[5]; shoot length
  Shoot (%): −0.1%
[3]; 20 ug/ml spray
  Effectiveness Covered (%): 97* %
  Effectiveness Uncovered (%): 80* %
[4]
  Maximum lifetime, days over 80%: 140 days
[6]
  elicitation of hypersensitive response (HR) in tobacco leaves: retained its ability to elicit the HR

Reference: patent US20210127671A1, “HYPERSENSITIVE RESPONSE ELICITOR PEPTIDES AND USE THEREOF” (priority 2015, published 2021)
